# Test results from the supplement of paper PMC8728848.
# Some of the results follow.
# What was measured:
# Test in all cases: glycan array binding signal (z-score within array); higher = stronger binding
# Conditions in all cases: glycan notation: IUPAC condensed, linker removed; mutation: R120K
# [1] = biological target: Gal(b1-4)GlcNAc(b1-3)Gal(b1-4)GlcNAc(b1-3)Gal(b1-4)GlcNAc(b1-3)Gal(b1-4)GlcNAc(b1-2)Man(a1-3)[Gal(b1-4)GlcNAc(b1-3)Gal(b1-4)GlcNAc(b1-3)Gal(b1-4)GlcNAc(b1-3)Gal(b1-4)GlcNAc(b1-2)Man(a1-6)]Man(b1-4)GlcNAc(b1-4)GlcNAc
# In short: (§1)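 The binding signal is a Z-score computed within each array. Data were drawn from 3228 arrays in the Consortium for Functional Glycomics database, restricted to those with a known protein sequence. Scores were averaged over arrays of the same protein sequence at different concentrations or buffers, and over linkers, and negative values can be taken as non-binding.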
# [2] = biological target: Gal(b1-4)GlcNAc(b1-3)Gal(b1-4)GlcNAc(b1-3)Gal(b1-4)GlcNAc(b1-3)Gal(b1-4)GlcNAc(b1-2)Man(a1-3)[Gal(b1-4)GlcNAc(b1-3)Gal(b1-4)GlcNAc(b1-3)Gal(b1-4)GlcNAc(b1-3)Gal(b1-4)GlcNAc(b1-2)Man(a1-6)]Man(b1-4)GlcNAc(b1-4)[Fuc(a1-6)]GlcNAc
# In short: as §1
# [3] = biological target: Gal(b1-4)GlcNAc(b1-3)Gal(b1-4)GlcNAc(b1-3)Gal(b1-4)GlcNAc(b1-3)Gal(b1-4)GlcNAc(b1-2)[Gal(b1-4)GlcNAc(b1-3)Gal(b1-4)GlcNAc(b1-3)Gal(b1-4)GlcNAc(b1-3)Gal(b1-4)GlcNAc(b1-6)]Man(a1-6)[Gal(b1-4)GlcNAc(b1-3)Gal(b1-4)GlcNAc(b1-3)Gal(b1-4)GlcNAc(b1-3)Gal(b1-4)GlcNAc(b1-2)Man(a1-3)]Man(b1-4)GlcNAc(b1-4)[Fuc(a1-6)]GlcNAc
# In short: as §1
# [4] = biological target: Gal(b1-4)GlcNAc(b1-3)Gal(b1-4)GlcNAc(b1-3)Gal(b1-4)GlcNAc(b1-3)Gal(b1-4)GlcNAc(b1-3)Gal(b1-4)GlcNAc(b1-2)Man(a1-3)[Gal(b1-4)GlcNAc(b1-3)Gal(b1-4)GlcNAc(b1-3)Gal(b1-4)GlcNAc(b1-3)Gal(b1-4)GlcNAc(b1-3)Gal(b1-4)GlcNAc(b1-2)Man(a1-6)]Man(b1-4)GlcNAc(b1-4)GlcNAc
# In short: as §1
# [5] = biological target: Gal(b1-4)GlcNAc(b1-3)Gal(b1-4)GlcNAc(b1-3)Gal(b1-4)GlcNAc(b1-3)Gal(b1-4)GlcNAc(b1-3)Gal(b1-4)GlcNAc(b1-2)Man(a1-3)[Gal(b1-4)GlcNAc(b1-3)Gal(b1-4)GlcNAc(b1-3)Gal(b1-4)GlcNAc(b1-3)Gal(b1-4)GlcNAc(b1-3)Gal(b1-4)GlcNAc(b1-2)Man(a1-6)]Man(b1-4)GlcNAc(b1-4)[Fuc(a1-6)]GlcNAc
# In short: as §1
# [6] = biological target: Gal(b1-4)GlcNAc(b1-3)Gal(b1-4)GlcNAc(b1-3)Gal(b1-4)GlcNAc(b1-3)Gal(b1-4)GlcNAc(b1-3)Gal(b1-4)GlcNAc(b1-2)[Gal(b1-4)GlcNAc(b1-3)Gal(b1-4)GlcNAc(b1-3)Gal(b1-4)GlcNAc(b1-3)Gal(b1-4)GlcNAc(b1-3)Gal(b1-4)GlcNAc(b1-6)]Man(a1-6)[Gal(b1-4)GlcNAc(b1-3)Gal(b1-4)GlcNAc(b1-3)Gal(b1-4)GlcNAc(b1-3)Gal(b1-4)GlcNAc(b1-3)Gal(b1-4)GlcNAc(b1-2)Man(a1-3)]Man(b1-4)GlcNAc(b1-4)[Fuc(a1-6)]GlcNAc
# In short: as §1
# [7] = biological target: Gal(b1-4)GlcNAc(b1-3)Gal(b1-4)GlcNAc(b1-3)Gal(b1-4)GlcNAc(b1-3)Gal(b1-4)GlcNAc(b1-3)Gal(b1-4)GlcNAc(b1-3)Gal(b1-4)GlcNAc(b1-2)Man(a1-3)[Gal(b1-4)GlcNAc(b1-3)Gal(b1-4)GlcNAc(b1-3)Gal(b1-4)GlcNAc(b1-3)Gal(b1-4)GlcNAc(b1-3)Gal(b1-4)GlcNAc(b1-3)Gal(b1-4)GlcNAc(b1-2)Man(a1-6)]Man(b1-4)GlcNAc(b1-4)GlcNAc
# In short: as §1
# [8] = biological target: Gal(b1-4)GlcNAc(b1-3)Gal(b1-4)GlcNAc(b1-3)GalNAc
# In short: as §1
# [9] = biological target: Gal(b1-4)GlcNAc(b1-3)Gal(b1-4)GlcNAc(b1-3)[Gal(b1-4)GlcNAc(b1-3)Gal(b1-4)GlcNAc(b1-6)]GalNAc
# In short: as §1
# [10] = biological target: Gal(b1-4)GlcNAc(b1-3)Gal(b1-4)GlcNAc(b1-6)[Gal(b1-3)]GalNAc
# In short: as §1
# [11] = biological target: Gal(b1-4)GlcNAc(b1-3)Gal(b1-4)[Fuc(a1-3)]GlcNAc(b1-3)Gal(b1-4)[Fuc(a1-3)]GlcNAc
# In short: as §1
# [12] = biological target: Gal(b1-4)GlcNAc(b1-3)GalNAc
# In short: as §1
# [13] = biological target: Gal(b1-4)GlcNAc(b1-3)[Fuc(a1-3)GlcNAc(b1-6)]Gal(b1-4)Glc
# In short: as §1
# [14] = biological target: Gal(b1-4)GlcNAc(b1-3)[Gal(b1-4)GlcNAc(b1-6)]Gal(b1-4)GlcNAc
# In short: as §1
# [15] = biological target: Gal(b1-4)GlcNAc(b1-3)[GlcNAc(b1-6)]Gal(b1-4)GlcNAc
# In short: as §1
# [16] = biological target: Gal(b1-4)GlcNAc(b1-6)Gal(b1-4)GlcNAc
# In short: as §1
# [17] = biological target: Gal(b1-4)GlcNAc(b1-6)GalNAc
# In short: as §1
# [18] = biological target: Gal(b1-4)GlcNAc(b1-6)[Gal(b1-3)]GalNAc
# In short: as §1
# [19] = biological target: Gal(b1-4)GlcNAc(b1-6)[Gal(b1-4)GlcNAc(b1-3)]GalNAc
# In short: as §1
# Gal(b1-4)GlcNAc6P = biological target: Gal(b1-4)GlcNAc6P
# In short: as §1
# Gal(b1-6)Gal = biological target: Gal(b1-6)Gal
# In short: as §1
# Gal3S(b1-3)GalNAc = biological target: Gal3S(b1-3)GalNAc
# In short: as §1
# Gal3S(b1-3)GlcNAc = biological target: Gal3S(b1-3)GlcNAc
# In short: as §1
# [20] = biological target: Gal3S(b1-3)[Fuc(a1-4)]GlcNAc
# In short: as §1
# Gal3S(b1-4)Glc = biological target: Gal3S(b1-4)Glc
# In short: as §1
# Gal3S(b1-4)Glc6S = biological target: Gal3S(b1-4)Glc6S
# In short: as §1
# Gal3S(b1-4)GlcNAc = biological target: Gal3S(b1-4)GlcNAc
# In short: as §1
# [21] = biological target: Gal3S(b1-4)[Fuc(a1-3)]Glc6S
# In short: as §1
# [22] = biological target: Gal3S(b1-4)[Fuc(a1-3)]GlcNAc
# In short: as §1
# [23] = biological target: Gal3S(b1-4)[Fuc(a1-3)]GlcNAc6S
# In short: as §1
# Gal3S4S(b1-4)GlcNAc = biological target: Gal3S4S(b1-4)GlcNAc
# In short: as §1
# Gal3S6S(b1-4)GlcNAc = biological target: Gal3S6S(b1-4)GlcNAc
# In short: as §1
# Gal3S6S(b1-4)GlcNAc6S = biological target: Gal3S6S(b1-4)GlcNAc6S
# In short: as §1
# Gal4S(b1-4)GlcNAc = biological target: Gal4S(b1-4)GlcNAc
# In short: as §1
# Gal4S6S(b1-4)GlcNAc = biological target: Gal4S6S(b1-4)GlcNAc
# In short: as §1
# Gal6P(b1-4)GlcNAc = biological target: Gal6P(b1-4)GlcNAc
# In short: as §1
# Gal6S(b1-3)GlcNAc = biological target: Gal6S(b1-3)GlcNAc
# In short: as §1
# Gal6S(b1-3)GlcNAc6S = biological target: Gal6S(b1-3)GlcNAc6S
# In short: as §1
binder,measurement,setting,value
"Siglec-9 (Homo sapiens), Q9Y336 (protein) MLLLLLPLLWGRERAEGQTSKLLTMQSSVTVQEGLCVHVPCSFSYPSHGWIYPGPVVHGYWFREGANTDQDAPVATNNPARAVWEETRDRFHLLGDPHTKNCTLSIRDARRSDAGRYFFKMEKGSIKWNYKHHRLSVNVTALTHRPNILIPGTLESGCPQNLTCSVPWACEQGTPPMISWIGTSVSPLDPSTTRSSVLTLIPQPQDHGTSLTCQVTFPGASVTTNKTVHLNVSYPPQNLTMTVFQGDGTVSTVLGNGSSLSLPEGQSLRLVCAVDAVDSNPPARLSLSWRGLTLCPSQPSNPGVLELPWVHLRDAAEFTCRAQNPLGSQQVYLNVSLQSKATSGVTQGVVGGAGATALVFLSFCVIFVVVRSCRKKSARPAAGVGDTGIEDANAVRGSASQGPLTEPWAEDSPPDQPPPASARSSVGEGELQYASLSFQMVKPWDSRGQEATDTEYSEIKIHR",glycan array binding signal (z-score),[1],-0.423
same,glycan array binding signal (z-score),[2],-0.204
same,glycan array binding signal (z-score),[3],-0.342
same,glycan array binding signal (z-score),[4],-0.293
same,glycan array binding signal (z-score),[5],-0.478
same,glycan array binding signal (z-score),[6],-0.401
same,glycan array binding signal (z-score),[7],-0.27
same,glycan array binding signal (z-score),[8],-0.105
same,glycan array binding signal (z-score),[9],0.096
same,glycan array binding signal (z-score),[10],0.314
same,glycan array binding signal (z-score),[11],-0.305
same,glycan array binding signal (z-score),[12],-0.357
same,glycan array binding signal (z-score),[13],-0.062
same,glycan array binding signal (z-score),[14],-0.24
same,glycan array binding signal (z-score),[15],-0.642
same,glycan array binding signal (z-score),[16],-0.635
same,glycan array binding signal (z-score),[17],0.335
same,glycan array binding signal (z-score),[18],-0.295
same,glycan array binding signal (z-score),[19],-0.332
same,glycan array binding signal (z-score),Gal(b1-4)GlcNAc6P,0.464
same,glycan array binding signal (z-score),Gal(b1-6)Gal,0.196
same,glycan array binding signal (z-score),Gal3S(b1-3)GalNAc,-0.362
same,glycan array binding signal (z-score),Gal3S(b1-3)GlcNAc,-0.347
same,glycan array binding signal (z-score),[20],-0.39
same,glycan array binding signal (z-score),Gal3S(b1-4)Glc,0.244
same,glycan array binding signal (z-score),Gal3S(b1-4)Glc6S,0.373
same,glycan array binding signal (z-score),Gal3S(b1-4)GlcNAc,-0.151
same,glycan array binding signal (z-score),[21],0.005
same,glycan array binding signal (z-score),[22],0.111
same,glycan array binding signal (z-score),[23],0.417
same,glycan array binding signal (z-score),Gal3S4S(b1-4)GlcNAc,-0.22
same,glycan array binding signal (z-score),Gal3S6S(b1-4)GlcNAc,0.121
same,glycan array binding signal (z-score),Gal3S6S(b1-4)GlcNAc6S,1.35
same,glycan array binding signal (z-score),Gal4S(b1-4)GlcNAc,-0.468
same,glycan array binding signal (z-score),Gal4S6S(b1-4)GlcNAc,0.149
same,glycan array binding signal (z-score),Gal6P(b1-4)GlcNAc,0.007
same,glycan array binding signal (z-score),Gal6S(b1-3)GlcNAc,-0.227
same,glycan array binding signal (z-score),Gal6S(b1-3)GlcNAc6S,1.72
